# “And” between values parts separate entries of the source, which are not always exact repeats. Equal entries are not always repeated. Some of the results follow. Entries with a potency or affinity are not part of this list.
# System: Pseudomonas aeruginosa
# Details: Concentration 32 ug.mL-1, ASSAY_TEST Inhibition of Bacterial Growth, detection method Absorption (OD600), MEDIA CAMHB, plate type 384well, NBS, CORNING #3640, time 18 hr
SMILES,Inhibition [%],Inhibition (32 ug/mL)
Cc1ccc(/C=N/NC(=O)c2c[nH]c3ccccc23)cc1,22.38,–
Cc1nn(-c2ccccc2)c2ncnc(Nc3ccccc3)c12,25.35,–
Cc1ccc2nc(Cl)c(/C=N/OCc3ccccc3)cc2c1,5.37,–
N#Cc1c(-c2ccccc2)c2c(ccc3ccccc32)oc1=O,16.46,–
N#Cc1c(Cl)nc(Sc2ccccc2)c(C#N)c1-c1ccccc1,14.08,–
COc1ccc(C2c3ccc4ccccc4c3OC(=NBr)C2(Br)C#N)cc1 (stereo not given),3.27,–
C#CCNc1cccc(F)n1,15.6,–
CN(C)c1nc(Cl)c(C#N)c(-c2ccccc2)c1C#N,14.67,–
O=C(N/N=C/c1c[nH]c2ccccc12)c1ccc(Cl)cc1,21.47,–
N#CC1=C(N)Oc2c(ccc3ccccc23)C1c1c(Cl)cccc1Cl (stereo not given),24.94,–
COc1nc2ccc(C)cc2cc1C=O,-3.42,–
Cc1ccc(C2CC2(N)C(=O)O)cc1.Cl (stereo not given),34.33,–
CCOC(=O)C1=C(C)OC(N)=C(C#N)C1c1ccccc1 (stereo not given),14.54,–
CC(=O)n1cc(/C=C2\N=C(c3ccccc3)OC2=O)c2ccccc21,14.31,–
COc1nc(Cl)c(C#N)c(-c2ccccc2)c1C#N,1.41,–
C#CCNc1nc(Cl)c(C#N)c(-c2ccccc2)c1C#N,-6.56,–
CCOC(=O)C1=C(C)OC(N)=C(C#N)C1c1cccs1 (stereo not given),1.21,–
COc1ccc2c(c1)cc(CN(C)C)n2C,32.78,–
COc1ccc(C=C2N=C(c3ccccc3)SC2=O)cc1,50.12,–
COc1cccc(C2c3c(ccc4ccccc34)OC(=N)C2(Br)C#N)c1 (stereo not given),–,26.4% and 15.62%
Cc1ccc(CNNC(=O)c2cc3ccccc3n2C)cc1,-0.3,–
N#CC1=C(Cl)Oc2c(ccc3ccccc23)C1c1ccc([N+](=O)[O-])cc1 (stereo not given),42.64,–

SMILES,Inhibition [%],Inhibition (32 ug/mL)
O=C(N/N=C/c1ccc(Cl)cc1)c1cc2ccccc2[nH]1,9.93,–
CC(=O)Nc1nn(C)c2nc3nc4c(c(N)c3cc12)CCCC4,–,10.22% and 17.37%
O=C(Cc1c[nH]c2ccccc12)NN=C1CCCCCC1,8.5,–
N#CC1=C(N)Oc2ccc3ccccc3c2C1c1ccccc1[N+](=O)[O-] (stereo not given),17.18,–
N#Cc1cc(C#N)c(Cl)nc1Cl,19.49,–
COc1ccc(-c2c(C#N)c(=O)oc3c2ccc2ccccc23)cc1,–,-15.02% and -12.79%
NNC(=O)C1(NC(=O)c2ccccc2)CC1c1cccc(O)c1 (stereo not given),38.87,–
CCCC(C)NNC(=O)c1cc2ccccc2[nH]1 (stereo not given),11.51,–
CC(C)(C)OC(=O)Nc1ncccc1Br,16.38,–
COc1ccc(C2C(C#N)=C(N)Oc3ccc4ccccc4c32)cc1 (stereo not given),17.09,–
CCOC(=O)c1c(C)nc(NC2CCN(Cc3ccccc3)CC2)c(C#N)c1-c1ccccc1,12.24,–
N#CC1(Br)C(=NBr)Oc2ccc3ccccc3c2C1c1ccccc1 (stereo not given),17.54,–
N#Cc1cc(C#N)c(N2CCC(O)CC2)nc1N,3.85,–
CCOC(=O)c1cc2ccccc2[nH]1,23.43,–
CSC1=NC2(CC2c2ccccc2)C(=O)N1C (stereo not given),22.18,–
CC1Cc2c(Br)nc3nc4c(c(N)c3c2NC1=O)CCCC4 (stereo not given),16.06,–
O=C(NN=Cc1c[nH]c2ccccc12)c1cccc2ccccc12,29.57,–
Nc1c2c(nc3c1C(c1ccc(Cl)c(Cl)c1)c1ccc4ccccc4c1O3)CCCC2 (stereo not given),14.97,–
Cn1c(C(=O)NCc2ccccc2)cc2cc(OCCCC3CCN(Cc4ccccc4)CC3)ccc21,20.77,–
CCOC(=O)C1=C(C)OC(N)=C(C#N)C1c1cccnc1 (stereo not given),6.6,–
N#CC1=C(N)Oc2c(ccc3ccccc23)C1c1cccc([N+](=O)[O-])c1 (stereo not given),39.53,–
Cc1ccc(C(O)SNNc2ncnc3c2cnn3-c2ccccc2)cc1 (stereo not given),34.06,–

SMILES,Inhibition [%],Inhibition (32 ug/mL)
CCOC(=O)C1=C(C)Oc2nc3c(c(N)c2C1c1nccn1C)CCCCC3 (stereo not given),20.83,–
COc1ccc2c(c1)cc(CN(C)Cc1cn(Cc3ccccc3)nn1)n2C,13.96,–
O=C(O)n1ccc2ccccc21,12.53,–
COc1nc(N)c(C#N)cc1C#N,6.84,–
C#CCNC(=O)c1cc2cc(OCCCC3CCN(Cc4ccccc4)CC3)ccc2[nH]1,5.31,–
CCOC(=O)/C(C#N)=C\c1ccc([N+](=O)[O-])cc1,5.37,–
C=CCNc1[nH]c2ccc(O)cc2c1C#N,13.28,–
CCOC(=O)c1c(C)nc2nc3c(c(N)c2c1-c1ccc(OC)cc1)CCCCCC3,-8.56,–
C#CCNc1nc(OC)c(C#N)c(-c2ccccc2)c1C#N,3.44,–
COc1cc(C2c3c(nc4c(c3N)CCC4)Oc3ccc4ccccc4c32)ccc1O (stereo not given),49.01,–
N#Cc1c(N)nc2c(c1-c1ccccc1)CN(Cc1ccccc1)CC2,41.1,–
CC1=C(C(=O)N2[C@@H]3C[C@H]4CCC3(CS2(=O)=O)C4(C)C)C(c2ccccc2)C(C#N)=C(N)O1 (stereo not given in full),-5.19,–
COc1nc2nc3c(c(N)c2cc1C#N)CCCC3.Cl,14.96,–
C#CCN(C)Cc1cc2cc(O)ccc2n1C.Cl,24.88,–
Cn1ccnc1C1c2ccc3ccccc3c2Oc2nc3c(c(N)c21)CCCCC3 (stereo not given),-4.21,–
Cc1nc(NO)c2c(C)nn(-c3ccccc3)c2n1,26.61,–
CCCC(=O)NCc1c(-c2ccc(Cl)cc2)nc2ccccn12,-3.93,–
CNN=C1N=C(SCc2ccccc2)SC1=O,20.09,–
Cc1nc2c3c(C)nn(-c4ccccc4)c3ncn2n1,22.75,–
CCOC(=O)c1cn(C)c2ccccc12,29.33,–
C/C(=N\NC(=O)c1cc2ccccc2n1Cc1ccccc1)C1CC1,20.86,–
N#Cc1c(N)nc(NCCC2CCN(Cc3ccccc3)CC2)c(C#N)c1-c1ccccc1,7.52,–

SMILES,Inhibition [%],Inhibition (32 ug/mL)
O=C(Cc1c[nH]c2ccccc12)NNCCc1ccccc1,7.4,–
Cc1cnc(NC(=O)OC(C)(C)C)c(Br)c1,17.25,–
COC1=C(C#N)CC(C)C(=O)N1 (stereo not given),8.91,–
O=C(N/N=C/c1c[nH]c2ccccc12)C(c1ccccc1)c1ccccc1,38.29,–
C=C=CCN(C)Cc1cc2ccccc2n1C.O=C(O)C(=O)O,5.5,–
COc1cc(C2c3ccc4ccccc4c3Oc3nc4c(c(N)c32)CCCC4)ccc1O.Cl (stereo not given),15.76,–
C#CCN(C)c1nc(Sc2ccccc2)c(C#N)c(-c2ccccc2)c1C#N,38.94,–
Cc1n[nH]c2c1C(c1ccc([N+](=O)[O-])cc1)C(C#N)=C(N)O2 (stereo not given),-6.5,–
N#Cc1c(-c2ccccc2)c2ccc3ccccc3c2oc1=O,3.94,–
C=C1CNc2c(C#N)c(-c3ccccc3)c(C#N)c(=N)n21,4.26,–
N#Cc1c(N)nc(NCCCC2CCN(Cc3ccccc3)CC2)c(C#N)c1-c1ccccc1,38.45,–
CCOC(=O)/C(C#N)=C\c1ccc(C)cc1,23.9,–
c1ccc(Cn2ccc3ccccc32)cc1,42.69,–
COc1ccc2c(c1)cc(CNc1ccccc1)n2C,15.4,–
COc1ccc2c(ccn2C)c1,28.61,–
CCOC(=O)c1c(C)[nH]c2ccc(OC)cc12,15.28,–
N#C/C(=C\c1ccccc1Cl)C(=O)c1ccccc1,14.55,–
CCOC(=O)N/N=C/c1ccccc1,19.67,–
Cl.NC1(C(=O)O)CC1c1cccc(Cl)c1 (stereo not given),34.52,–
O=C1NC(=O)C(=Cc2ccccc2)N1,38.65,–
C#CCNc1nc(N)c(C#N)cc1C#N,9.02,–
N#Cc1cc(C#N)c(Cl)nc1N,7.47,–

SMILES,Inhibition [%],Inhibition (32 ug/mL)
O=c1oc2cc(O)ccc2cc1-c1ccccc1,23.04,–
Cl.Nc1c2c(nc3c1C(c1c(Cl)cccc1Cl)c1ccc4ccccc4c1O3)CCCC2 (stereo not given),23.67,–
Cc1ccc2nc(Cl)c(/C=N/N)cc2c1,13.38,–
N#Cc1cc(C#N)c(NC2CCN(Cc3ccccc3)CC2)nc1N,–,17% and 20.26%
Cn1ccnc1C1C(C#N)=C(N)Oc2c1ccc1cccnc21 (stereo not given),9.47,–
CCOc1nc(N)c(C#N)cc1C#N.Cl,-17.7,–
C#CCN(C)c1nc(N)c(C#N)cc1C#N,–,13.14% and 18.1%
Cc1ccc(C2c3c(Cl)nnnc3Oc3ccc4ccccc4c32)cc1 (stereo not given),43.25,–
NC1(C(=O)O)CC1c1ccc2c(c1)OCO2 (stereo not given),20.59,–
Cc1cnc2ccc(Cl)cn12,42.49,–
N#Cc1c(NC2CCC(Cc3ccccc3)CC2)nc(NC2CCN(Cc3ccccc3)CC2)c(C#N)c1-c1ccccc1 (stereo not given),1.36,–
Cl.ClCCCN1CCCCC1,6.39,–
C#CCNc1ccc(Cl)nn1,35.63,–
CNC(=O)NC1(C(=O)O)CC1c1ccccc1 (stereo not given),50.33,–
C=C1CN(C)c2c(C#N)cc(C#N)c(=S)n21,16.25,–
COc1ccc(C2C(C#N)=C(Cl)Oc3c2ccc2ccccc32)cc1OC (stereo not given),-12.7,–
O=Cc1c[nH]c2ccccc12 [3-FORMYLINDOLE],41.82,–
CCOC(=O)c1c(C)nc(N)c(C#N)c1-c1cccs1,6.4,–
N#CC1=C(N)Oc2ccc3ccccc3c2C1c1ccc(O)cc1 (stereo not given),18.24,–
c1ccc(COc2ccc3[nH]ccc3c2)cc1,34.01,–
C#CCN(C)Cc1cc2cc(OCCCCC3CCN(Cc4ccccc4)CC3)ccc2n1C,12.81,–
Cn1cc(/C=C2\NC(=S)NC2=O)c2ccccc21,30.49,–
